PubChem BioAssay AID1956 (SRMLSC, 2009)
The whole screen tested about 220,000 compounds, of which about 10 (0.005%) were called active. Inconclusive results, whose numbers are uncertain, are shown with a selection of clear calls. No stated cut-off is given here; in the data, active means maximum fold increase above about 1.5; inconclusive means no clear call, values can overlap the other calls; inactive means below that; tested in PC3 cells.

assay: compounds boosting herpes simplex virus growth – fold increase, host cell viability (AID 1956); conditions: HSV replication augmentation in cells; at 25 µM unless noted

Compound | maximum fold increase
CCOC(=O)CCSc1nc(C)cc(C(F)(F)F)c1C#N | inconclusive
Fc1ccc(-n2c(-c3ccco3)nc3nc4ccccc4nc32)cc1 | inconclusive
Cc1cccc(NC(=S)NC2CC3CCCC(C2)N3CC(C)C)c1 (stereo unspecified) | inactive
O=C(O)C1Sc2[nH]c(=O)sc2C2c3ccc(O)cc3OC(=O)C12 (stereo unspecified) | inconclusive
CC1CCCCN1C(=O)Cn1c(=O)n(CCC(=O)NCc2ccco2)c(=O)c2sccc21 (stereo unspecified) | inconclusive
Cc1[nH]nc(-c2ccc(OCc3cnn(-c4ccccc4)c3)cc2O)c1Oc1ccc(Cl)cc1 | inconclusive
O=C1c2ccccc2-c2ncnc3c(N4CCOCC4)cc(N4CCOCC4)c1c23 | inconclusive
Cc1cc(C)n2cc(CSc3nnc(SCc4cn5c(C)cc(C)nc5n4)s3)nc2n1 | inconclusive
COc1ccc(-c2c(C(C)=O)c(C)nc3sc4c(=N)n(N)cnc4c23)cc1 | inconclusive
Cc1c(Cl)cccc1NC(=S)NCc1ccc(Cl)cc1 | inconclusive
COc1cc(NS(=O)(=O)c2ccc(N/C=C\C(=O)c3ccc(F)cc3)cc2)nc(OC)n1 | inactive
COc1ccc(NC(=S)NCCC(c2ccccc2)c2ccccc2)c(OC)c1 | inconclusive
COc1ccc(-c2cc(C(F)(F)F)c3c(n2)sc2c(O)cc(=O)[nH]c23)c(OC)c1 | inconclusive
CCCCOc1ncnc2c1[nH]c1ccc(C)cc12 | inconclusive
Cc1ccc(C)c(NC(=O)c2cc(-c3cccnc3)nc3ccccc23)c1 | inactive
COc1ccc(S(=O)(=O)C(C#N)c2nc3ccccc3nc2N2CCCCC2)cc1 (stereo unspecified) | inconclusive
CC(=O)c1nn(-c2ccc(Br)cc2)cc1C(=O)c1ccccc1 | inactive
COC(=O)c1cc(NC(=O)c2c(Cl)nc3sccn23)cc(C(=O)OC)c1 | inconclusive
CCOC(=O)/C(C#N)=C1/C=C(C)NC(c2ccccc2O)=N1 | inactive
CCOc1ccccc1/C=N/NC(=O)Cc1csc(Nc2cccc(C(F)(F)F)c2)n1 | inconclusive
COc1cc(OC)cc(C(=O)NCc2ccc3c(c2)cc(C)n3C)c1 | inconclusive
O=Cc1[nH]c2ccccc2c1N(C(=O)CCl)c1ccc([N+](=O)[O-])cc1 | inactive
CC1CC2C3CCC4=CC(=O)C=CC4(C)C3(F)C(O)CC2(C)C1(O)C(=O)CO (stereo unspecified) | inactive
CCCCCCCC(=O)NNC(=O)c1c(O)c2ccccc2n(CCC)c1=O | inactive
NS(=O)(=O)c1ccc(Nc2ccc([N+](=O)[O-])c3nonc23)cc1 | inconclusive
COc1ccc(Nc2nnc(SCC(=O)Nc3cc(C)on3)s2)cc1 | inconclusive

Compound | maximum fold increase
O=C(COc1ccccc1)Nc1nc(-c2ccc(S(=O)(=O)N3CCOCC3)cc2)cs1 | inconclusive
O=C(O)c1cccc(Cn2c(Cl)c(/C=N/NC(=O)c3cc4ccccc4cc3O)sc2=O)c1 | inconclusive
O=C(c1ccc(Cl)cc1)C(Cn1cncn1)C(Sc1ccccc1)c1ccccc1 (stereo unspecified) | inconclusive
COc1ccc2nc3oc(C(=O)N4CCN(c5ccccc5F)CC4)cc3cc2c1 | inconclusive
CC(=O)Nc1ccc2nc3c(=O)n(C)c(=O)n(C)c3nc2c1 | inconclusive
CCOC(=O)C1=C(C)NC(=O)C1CC(=O)Nc1ccccc1 (stereo unspecified) | inconclusive
CCc1cccc(CC)c1NC(=O)c1cccc(N)c1 | inactive
CCCN(CCC)c1ccc(/C=C/c2ccc3cc(OCC)ccc3n2)cc1 | inconclusive
CCOC(=O)c1ccc(NC(=S)Nc2ccccn2)cc1 | inconclusive
CCN(CC)c1ccc2cc(C(N)=O)c(=N)oc2c1 | inconclusive
CCCCOC(=O)CCN1C(=O)/C(=C2\SC(=S)N(CCC(=O)OCCCC)C2=O)SC1=S | inconclusive
Cn1cccc1/C=C1\SC(=S)N(NC(=O)c2ccccc2)C1=O | inactive
N#Cc1c(C(F)(F)F)cc(-c2ccccc2)nc1SCc1nc(N)nc(N2CCOCC2)n1 | inconclusive
CC(=O)/C(C#N)=C1\NC(=O)C(Cc2ccccc2C)S1 (stereo unspecified) | inconclusive
CC(=O)c1c(COC(=O)c2ccccc2)nc2ccccc2[n+]1[O-] | inactive
COc1ccc(N=Cc2c(O)n(-c3cccc(C)n3)c(=O)c3ccccc23)c(OC)c1 | inconclusive
CCCNC(=O)Cn1cnc2sc(C(=O)Nc3ccc4c(c3)OCO4)c(C)c2c1=O | inconclusive
CCOC(=O)c1cnc2c(OC)cccc2c1N1CCN(c2ccc(OC)cc2)CC1 | inconclusive
CN1/C(=C\C=C(C#N)C#N)C(C)(C)c2ccccc21 | inconclusive
N#CC1=C(N)SC(N)=C(C#N)C1c1c(Cl)cccc1Cl | inconclusive
Oc1ccc2ccc3cccc[n+]3c2c1 | inconclusive
Fc1cccc(Cl)c1CNn1cn[nH]c1=S | inactive
O=C(c1ccccc1)c1ccc(O)cc1O | inconclusive
NS(=O)(=O)c1ccc(N=Nc2c[nH]c(=O)c(O)c2)cc1 | inconclusive
COc1cc(/C=C2/C(=O)NN(c3cccc(C)c3)C2=O)cc([N+](=O)[O-])c1O | inactive
CC(/C=C/c1ccccc1)=N\NC(=S)NC(C)C | inactive

Compound | maximum fold increase
Cc1c([N+](=O)[O-])c(C/C=N/O)nn1C | inactive
COC(=O)c1cc2c(C)cc3ccc(C)cn3c-2c1C(=O)OC | inconclusive
CCN(CC)c1ccc(/C=C(\C#N)C(=O)NCc2ccco2)cc1 | inconclusive
CCCN1C(=O)S/C(=C\c2ccc(N3CCOCC3)cc2C)C1=O | inconclusive
O=C(N/N=C/c1c(O)n(-c2ccc(Cl)cn2)c(=O)c2ccccc12)c1ccncc1 | inconclusive
N#Cc1c(Cc2cccc3ccccc23)nn(CCO)c1N | inactive
COc1cc2c(cc1OC)C(c1cccs1)CC(=O)N2 (stereo unspecified) | inactive
CCn1nnnc1-c1ccc(OC)c(S(=O)(=O)Nc2ccc(OC)cc2)c1 | inactive
Cc1cccc(NC(=O)C(=O)NCC2CCCO2)c1 (stereo unspecified) | inactive
Cc1cc(O)c(/C=N/c2ccccn2)c(=O)o1 | inconclusive
CCOc1cc(/C=C(\C#N)c2nc(-c3cccs3)c(NC(C)=O)s2)ccc1O | inconclusive
Cc1ccc(S(=O)(=O)NC(C(=O)Oc2ccc3c(C(F)(F)F)cc(=O)oc3c2)c2ccccc2)cc1 (stereo unspecified) | inconclusive
COc1cccc(-c2nc(NCc3ccco3)c3ccccc3n2)c1O | inconclusive
CCOc1ccc(C(=O)N/N=C(\c2ccccc2)c2ccccn2)cc1 | inconclusive
O=C1/C(=C/c2cccs2)N=C(c2cccs2)N1Nc1ccccc1 | inconclusive
O=C(NC(=S)Nc1ccccc1)c1cc(-c2ccccc2)nc2ccccc12 | inconclusive
Cc1ccc(CN2CCNC(=O)C2CC(=O)NCCCn2ncc3ccccc32)o1 (stereo unspecified) | inactive
CN=c1scc(-c2ccccc2F)n1/N=C/c1ccc[nH]1 | inconclusive
CCCCC[C@H](O)/C=C/C1=C(CCCCCCC(=O)O)C(=O)CC1 | inactive
COc1cccc(-n2c(C)c3c(OC)cccc(=O)c3c2C)c1 | inconclusive
Cc1ccc(-c2cc(-c3ccc(F)cc3)c(C#N)c(N)n2)o1 | inconclusive
CCOC(=O)N1CCN(C(c2cccnc2)c2ccc3cccnc3c2O)CC1 (stereo unspecified) | inconclusive
CN(C)S(=O)(=O)c1ccc(C(=O)Nc2nnc(-c3ccc4c(c3)CCCC4)o2)cc1 | inactive
c1ccc(CNc2ncnc3c2oc2ccccc23)nc1 | inactive
CC(=O)N(C(C)=O)N1C(=O)c2cccc3c(N4CCOCC4)ccc(c23)C1=O | inconclusive
CC(=O)Nc1sc(/C(C#N)=C/c2ccc(Cl)c(Cl)c2)nc1-c1ccc(C)cc1 | inconclusive

Compound | maximum fold increase
COc1cc(/C=C(\C#N)c2nc3ccccc3o2)ccc1O | inconclusive
CCOc1cccc(=O)c2c(C)n(CC3CCCO3)c(C)c12 (stereo unspecified) | inconclusive
Cc1cccn2c(=O)c(/C=C3\SC(=S)N(CC(C)C)C3=O)c(NCCCOC(C)C)nc12 | inconclusive
N#CC1(C#N)CC(C=O)=C(N)C1(C#N)CC(=O)c1ccc(F)cc1 (stereo unspecified) | inconclusive
O=C(Nc1ccc(S(=O)(=O)Nc2nccs2)cc1)c1ccc(=O)[nH]c1 | inactive
C/C(=N/Nc1nc(-c2ccccc2)c(CC(=O)O)s1)c1ccccc1 | inconclusive
CC(=O)Nc1nc2ccccc2n1CCOc1ccccc1Cl | inactive
Cc1cccc(-n2c(O)c(C=Nc3ccc4c(c3)OCO4)c3ccccc3c2=O)n1 | inconclusive
Cc1cc2cc(CNC(=O)c3cccs3)ccc2n1C | inconclusive
N=C1c2ccccc2CN1NC(=O)c1cccc(S(=O)(=O)N2CCOCC2)c1 | inconclusive
N=C1/C(=C\c2coc3ccccc3c2=O)C(=O)N=C2SC(c3ccncc3)=NN12 | inconclusive
O=C(CCCSc1ccccc1)Nc1nc(-c2ccco2)c(-c2ccco2)s1 | inconclusive
CC(=O)N1CCN(c2ccc(NCc3ccc4c(c3)OCO4)cc2)CC1 | inconclusive
CCC(C)C(NC(=O)OC(C)(C)C)C(=O)NCc1ccco1 (stereo unspecified) | inactive
Cc1ccccc1-n1cc(C(=O)c2cc(Cl)ccc2O)cc(C#N)c1=O | inconclusive
CCN(CC)C(=O)CSc1nnc2nnc3cc(Cl)ccc3n12 | inconclusive
CCN(C(=O)COC(=O)c1cc2ccccc2cc1O)C1CCS(=O)(=O)C1 (stereo unspecified) | inconclusive
CC(C)C(c1nnnn1Cc1ccc(F)cc1)N1CCN(C2CCCCC2)CC1 (stereo unspecified) | inactive
Cc1ccccc1C(=O)Nc1cccc(NC(=S)NC(=O)c2cccs2)c1 | inconclusive
CCc1ccc2nc3sc(C(=O)Nc4nnc(CC)s4)c(N)c3cc2c1 | inconclusive
CCCOC(=O)c1ccc(Oc2cn[nH]c2-c2ccc(O)cc2O)cc1 | inactive
COc1ccccc1NC(=O)C1=C(C)NC(SCC(=O)c2ccccc2)=C(C#N)C1c1ccco1 (stereo unspecified) | inconclusive
OC(CN1CCN(c2cccc(C(F)(F)F)c2)CC1)c1c[nH]c2ccccc12 (stereo unspecified) | inactive
